# Laboratory results from paper PMC9911399, “Two distinct binding modes provide the RNA-binding protein RbFox with extraordinary sequence specificity”.
# Positions count from the first letter of the chain named. This is one part of the list.
# T1: RBFOX1 RRM (Homo sapiens, UniProt Q9NWB1 109-208)
# T1 sequence: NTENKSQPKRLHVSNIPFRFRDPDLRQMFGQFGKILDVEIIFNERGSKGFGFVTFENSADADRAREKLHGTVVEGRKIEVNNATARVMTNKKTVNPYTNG
# B1: CCAGACU (DNA:RNA)
# RNA: GGGAGACCGGAAUUCAGAUUGUCCCCAGACUUUAAAUCCCGUCGUAGCCACCA
# DNA 1: CAATCTGAATTCCGGTCTCCC
# DNA 2: TGGTGGCTACGACGGGATT
# B2: UCCGUUA (DNA:RNA)
# RNA: B1 RNA with C25U, A27C, A29U, C30U, U31A
# DNA 1: CAATCTGAATTCCGGTCTCCC
# DNA 2: TGGTGGCTACGACGGGATT
# B3: UGAGUGC (DNA:RNA)
# RNA: B1 RNA with C25U, C26G, A29U, C30G, U31C
# DNA 1: CAATCTGAATTCCGGTCTCCC
# DNA 2: TGGTGGCTACGACGGGATT
# B4: AAUAACG (DNA:RNA)
# RNA: B1 RNA with C25A, C26A, A27U, G28A, U31G
# DNA 1: CAATCTGAATTCCGGTCTCCC
# DNA 2: TGGTGGCTACGACGGGATT
# B5: GCCCCCC (DNA:RNA)
# RNA: B1 RNA with C25G, A27C, G28C, A29C, U31C
# DNA 1: CAATCTGAATTCCGGTCTCCC
# DNA 2: TGGTGGCTACGACGGGATT
# B6: GGCUUUA (DNA:RNA)
# RNA: GGGAGACCGGAAUUCAGAUUGUCCGGCUUUAUUAAAUCCCGUCGUAGCCACCA
# DNA 1: CAATCTGAATTCCGGTCTCCC
# DNA 2: TGGTGGCTACGACGGGATT
# B7: AAAGUAG (DNA:RNA)
# RNA: B1 RNA with C25A, C26A, A29U, C30A, U31G
# DNA 1: CAATCTGAATTCCGGTCTCCC
# DNA 2: TGGTGGCTACGACGGGATT
# B8: AGAUUGA (DNA:RNA)
# RNA: B6 RNA with G25A, C27A, U30G
# DNA 1: CAATCTGAATTCCGGTCTCCC
# DNA 2: TGGTGGCTACGACGGGATT
# B9: GAGGAAG (DNA:RNA)
# RNA: B1 RNA with C25G, C26A, A27G, C30A, U31G
# DNA 1: CAATCTGAATTCCGGTCTCCC
# DNA 2: TGGTGGCTACGACGGGATT
# B10: GCAAGCU (DNA:RNA)
# RNA: B1 RNA with C25G, G28A, A29G
# DNA 1: CAATCTGAATTCCGGTCTCCC
# DNA 2: TGGTGGCTACGACGGGATT
# B11: UGAUCUG (DNA:RNA)
# RNA: B6 RNA with G25U, C27A, U29C, A31G
# DNA 1: CAATCTGAATTCCGGTCTCCC
# DNA 2: TGGTGGCTACGACGGGATT
# B12: GCAUAGG (DNA:RNA)
# RNA: B1 RNA with C25G, G28U, C30G, U31G
# DNA 1: CAATCTGAATTCCGGTCTCCC
# DNA 2: TGGTGGCTACGACGGGATT
# B13: UUAUAAA (DNA:RNA)
# RNA: B1 RNA with C25U, C26U, G28U, C30A, U31A
# DNA 1: CAATCTGAATTCCGGTCTCCC
# DNA 2: TGGTGGCTACGACGGGATT
# B14: CCUGCGU (DNA:RNA)
# RNA: B1 RNA with A27U, A29C, C30G
# DNA 1: CAATCTGAATTCCGGTCTCCC
# DNA 2: TGGTGGCTACGACGGGATT
# B15: AUCAGGU (DNA:RNA)
# RNA: B1 RNA with C25A, C26U, A27C, G28A, A29G, C30G
# DNA 1: CAATCTGAATTCCGGTCTCCC
# DNA 2: TGGTGGCTACGACGGGATT
# B16: AAAAUUA (DNA:RNA)
# RNA: B6 RNA with G25A, G26A, C27A, U28A
# DNA 1: CAATCTGAATTCCGGTCTCCC
# DNA 2: TGGTGGCTACGACGGGATT
# B17: UCAUACU (DNA:RNA)
# RNA: B1 RNA with C25U, G28U
# DNA 1: CAATCTGAATTCCGGTCTCCC
# DNA 2: TGGTGGCTACGACGGGATT
# B18: UCUGCUG (DNA:RNA)
# RNA: B1 RNA with C25U, A27U, A29C, C30U, U31G
# DNA 1: CAATCTGAATTCCGGTCTCCC
# DNA 2: TGGTGGCTACGACGGGATT
# B19: GCAUUCU (DNA:RNA)
# RNA: B1 RNA with C25G, G28U, A29U
# DNA 1: CAATCTGAATTCCGGTCTCCC
# DNA 2: TGGTGGCTACGACGGGATT
# B20: UCUUGAA (DNA:RNA)
# RNA: B6 RNA with G25U, G26C, C27U, U29G, U30A
# DNA 1: CAATCTGAATTCCGGTCTCCC
# DNA 2: TGGTGGCTACGACGGGATT
# B21: UGAUCAA (DNA:RNA)
# RNA: B6 RNA with G25U, C27A, U29C, U30A
# DNA 1: CAATCTGAATTCCGGTCTCCC
# DNA 2: TGGTGGCTACGACGGGATT
# B22: CAGACAC (DNA:RNA)
# RNA: B1 RNA with C26A, A27G, G28A, A29C, C30A, U31C
# DNA 1: CAATCTGAATTCCGGTCTCCC
# DNA 2: TGGTGGCTACGACGGGATT
# B23: UAUCUCU (DNA:RNA)
# RNA: B1 RNA with C25U, C26A, A27U, G28C, A29U
# DNA 1: CAATCTGAATTCCGGTCTCCC
# DNA 2: TGGTGGCTACGACGGGATT
# B24: ACUCUAU (DNA:RNA)
# RNA: B1 RNA with C25A, A27U, G28C, A29U, C30A
# DNA 1: CAATCTGAATTCCGGTCTCCC
# DNA 2: TGGTGGCTACGACGGGATT
# B25: GCUGGAU (DNA:RNA)
# RNA: B1 RNA with C25G, A27U, A29G, C30A
# DNA 1: CAATCTGAATTCCGGTCTCCC
# DNA 2: TGGTGGCTACGACGGGATT
# B26: CGGGGGC (DNA:RNA)
# RNA: B1 RNA with C26G, A27G, A29G, C30G, U31C
# DNA 1: CAATCTGAATTCCGGTCTCCC
# DNA 2: TGGTGGCTACGACGGGATT
# B27: UAGUCUG (DNA:RNA)
# RNA: B6 RNA with G25U, G26A, C27G, U29C, A31G
# DNA 1: CAATCTGAATTCCGGTCTCCC
# DNA 2: TGGTGGCTACGACGGGATT
# B28: CGGGUGA (DNA:RNA)
# RNA: B6 RNA with G25C, C27G, U28G, U30G
# DNA 1: CAATCTGAATTCCGGTCTCCC
# DNA 2: TGGTGGCTACGACGGGATT
# B29: CCACUUA (DNA:RNA)
# RNA: B1 RNA with G28C, A29U, C30U, U31A
# DNA 1: CAATCTGAATTCCGGTCTCCC
# DNA 2: TGGTGGCTACGACGGGATT
# B30: AGUGCAU (DNA:RNA)
# RNA: B1 RNA with C25A, C26G, A27U, A29C, C30A
# DNA 1: CAATCTGAATTCCGGTCTCCC
# DNA 2: TGGTGGCTACGACGGGATT
# B31: GGAGAGC (DNA:RNA)
# RNA: B1 RNA with C25G, C26G, C30G, U31C
# DNA 1: CAATCTGAATTCCGGTCTCCC
# DNA 2: TGGTGGCTACGACGGGATT
# Target: T1, RBFOX1 RRM
# Test: EMSA; HiTS-Eq, 1 nM pool, 10 min; buffer printed only for the single-RNA assays: 10 mM Tris pH 7.5, 150 mM NaCl, 3.4 mM EDTA, 0.001% NP-40, 30 C
# Details: tags: His6 N-terminal (pET28a); label: 5' 32P
# Method in brief: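 These values rest on relative association constants, computed from read-count changes of each RNA species versus the control reaction and normalised to the cognate motif. Reads came from free RNA recovered by 8% native PAGE after purified RbFox RRM (wild type or mutant) at increasing concentrations was equilibrated for 10 min in 50 µL with 1 nM of a 5′-radiolabelled pool with 7 randomized nucleotides and DNA-annealed flanks.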
row,Binder,binding signal
1,B1,0.00858 KA relative to UGCAUGU
2,B2,0.00479 KA relative to UGCAUGU
3,B3,0.0254 KA relative to UGCAUGU
4,B4,0.00173 KA relative to UGCAUGU
5,B5,0.00549 KA relative to UGCAUGU
6,B6,0.0161 KA relative to UGCAUGU
7,B7,0.00465 KA relative to UGCAUGU
8,B8,0.0124 KA relative to UGCAUGU
9,B9,0.0138 KA relative to UGCAUGU
10,B10,0.011 KA relative to UGCAUGU
11,B11,0.0254 KA relative to UGCAUGU
12,B12,0.0105 KA relative to UGCAUGU
13,B13,0.00877 KA relative to UGCAUGU
14,B14,0.011 KA relative to UGCAUGU
15,B15,0.00694 KA relative to UGCAUGU
16,B16,0.000224 KA relative to UGCAUGU

row,Binder,binding signal
1,B17,0.000544 KA relative to UGCAUGU
2,B18,0.023 KA relative to UGCAUGU
3,B19,0.0117 KA relative to UGCAUGU
4,B20,0.0145 KA relative to UGCAUGU
5,B21,0.0102 KA relative to UGCAUGU
6,B22,0.00346 KA relative to UGCAUGU
7,B23,0.00431 KA relative to UGCAUGU
8,B24,0.00106 KA relative to UGCAUGU
9,B25,0.0131 KA relative to UGCAUGU
10,B26,0.0168 KA relative to UGCAUGU
11,B27,0.0213 KA relative to UGCAUGU
12,B28,0.0241 KA relative to UGCAUGU
13,B29,0.00338 KA relative to UGCAUGU
14,B30,0.0168 KA relative to UGCAUGU
15,B31,0.0169 KA relative to UGCAUGU
